# Some of the results follow.
# B1: Regenerating Gene I (Homo sapiens), P05451 (protein)
# chain: MAQTSSYFMLISCLMFLSQSQGQEAQTELPQARISCPEGTNAYRSYCYYFNEDRETWVDADLYCQNMNSGNLVSVLTQAEGAFVASLIKESGTDDFNVWIGLHDPKKNRRWHWSSGSLVSYKSWGIGAPSSVNPGYCVSLTSSTGFQKWKDVPCEDKFSFVCKFKN
# Tests used:
# Experiment in all cases: glycan array binding signal (z-score within array); higher = stronger binding
# Conditions in all cases: glycan notation: IUPAC condensed, linker removed
# [1] = biological target: GlcNAc(b1-6)Gal(b1-4)GlcNAc
# Procedure, shortened: (§1)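 Columns mapping to the same glycan were averaged after glycan names were converted to IUPAC-condensed notation. The data come from 3228 arrays in the Consortium for Functional Glycomics database, limited to those with an available protein sequence. Binding is reported as a within-array Z-score averaged across arrays of one protein sequence and across linkers.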
# GlcNAc(b1-6)GalNAc = biological target: GlcNAc(b1-6)GalNAc
# Procedure, shortened: as §1
# GlcNAc3Prop(b1-4)GlcNAc = biological target: GlcNAc3Prop(b1-4)GlcNAc
# Procedure, shortened: as §1
# Kdn(a2-3)Gal(b1-3)GlcNAc = biological target: Kdn(a2-3)Gal(b1-3)GlcNAc
# Procedure, shortened: as §1
# Kdn(a2-3)Gal(b1-4)GlcNAc = biological target: Kdn(a2-3)Gal(b1-4)GlcNAc
# Procedure, shortened: as §1
# [2] = biological target: Man(a1-2)Man(a1-2)Man(a1-3)Man
# Procedure, shortened: as §1
# [3] = biological target: Man(a1-2)Man(a1-2)Man(a1-6)[Man(a1-3)]Man
# Procedure, shortened: as §1
# Man(a1-2)Man(a1-3)Man = biological target: Man(a1-2)Man(a1-3)Man
# Procedure, shortened: as §1
# [4] = biological target: Man(a1-2)Man(a1-3)[Man(a1-2)Man(a1-6)]Man
# Procedure, shortened: as §1
# [5] = biological target: Man(a1-2)Man(a1-3)[Man(a1-2)Man(a1-6)]Man(a1-6)[Man(a1-2)Man(a1-2)Man(a1-3)]Man
# Procedure, shortened: as §1
# [6] = biological target: Man(a1-2)Man(a1-3)[Man(a1-2)Man(a1-6)]Man(a1-6)[Man(a1-2)Man(a1-2)Man(a1-3)]Man(b1-4)GlcNAc(b1-4)GlcNAc
# Procedure, shortened: as §1
# [7] = biological target: Man(a1-2)Man(a1-3)[Man(a1-6)]Man(a1-6)[Man(a1-2)Man(a1-3)]Man(b1-4)GlcNAc(b1-4)GlcNAc
# Procedure, shortened: as §1
# [8] = biological target: Man(a1-2)Man(a1-6)[Man(a1-3)]Man(a1-6)[Man(a1-2)Man(a1-2)Man(a1-3)]Man
# Procedure, shortened: as §1
# [9] = biological target: Man(a1-2)Man(a1-6)[Man(a1-3)]Man(a1-6)[Man(a1-2)Man(a1-2)Man(a1-3)]Man(b1-4)GlcNAc(b1-4)GlcNAc
# Procedure, shortened: as §1
# Man(a1-3)[Man(a1-6)]Man = biological target: Man(a1-3)[Man(a1-6)]Man
# Procedure, shortened: as §1
# [10] = biological target: Man(a1-3)[Man(a1-6)]Man(a1-6)[Man(a1-2)Man(a1-3)]Man(b1-4)GlcNAc(b1-4)GlcNAc
# Procedure, shortened: as §1
# [11] = biological target: Man(a1-3)[Man(a1-6)]Man(a1-6)[Man(a1-3)]Man
# Procedure, shortened: as §1
# [12] = biological target: Man(a1-3)[Man(a1-6)]Man(a1-6)[Man(a1-3)]Man(b1-4)GlcNAc(b1-4)GlcNAc
# Procedure, shortened: as §1
# [13] = biological target: Man(a1-3)[Man(a1-6)]Man(b1-4)GlcNAc(b1-4)GlcNAc
# Procedure, shortened: as §1
# Man(a1-6)Man = biological target: Man(a1-6)Man
# Procedure, shortened: as §1
# Man(b1-4)GlcNAc = biological target: Man(b1-4)GlcNAc
# Procedure, shortened: as §1
# Neu5Ac(a2-3)Gal = biological target: Neu5Ac(a2-3)Gal
# Procedure, shortened: as §1
# [14] = biological target: Neu5Ac(a2-3)Gal(b1-3)GalNAc
# Procedure, shortened: as §1
# [15] = biological target: Neu5Ac(a2-3)Gal(b1-3)GalNAc(b1-3)Gal(a1-4)Gal(b1-4)Glc
# Procedure, shortened: as §1
# [16] = biological target: Neu5Ac(a2-3)Gal(b1-3)GalNAc(b1-3)Gal(b1-4)GlcNAc
# Procedure, shortened: as §1
# [17] = biological target: Neu5Ac(a2-3)Gal(b1-3)GalNAc(b1-4)[Neu5Ac(a2-3)]Gal(b1-4)Glc
# Procedure, shortened: as §1
# [18] = biological target: Neu5Ac(a2-3)Gal(b1-3)GalNAc6S
# Procedure, shortened: as §1
# [19] = biological target: Neu5Ac(a2-3)Gal(b1-3)GlcNAc
# Procedure, shortened: as §1
# [20] = biological target: Neu5Ac(a2-3)Gal(b1-3)GlcNAc(b1-3)Gal(b1-3)GlcNAc
# Procedure, shortened: as §1
# [21] = biological target: Neu5Ac(a2-3)Gal(b1-3)GlcNAc6S
# Procedure, shortened: as §1
# [22] = biological target: Neu5Ac(a2-3)Gal(b1-3)[Fuc(a1-4)]GlcNAc
# Procedure, shortened: as §1
# [23] = biological target: Neu5Ac(a2-3)Gal(b1-3)[Fuc(a1-4)]GlcNAc(b1-3)Gal(b1-4)[Fuc(a1-3)]GlcNAc
# Procedure, shortened: as §1
# [24] = biological target: Neu5Ac(a2-3)Gal(b1-3)[Neu5Ac(a2-3)Gal(b1-4)]GlcNAc
# Procedure, shortened: as §1
# [25] = biological target: Neu5Ac(a2-3)Gal(b1-3)[Neu5Ac(a2-6)]GalNAc
# Procedure, shortened: as §1
# Neu5Ac(a2-3)Gal(b1-4)Glc = biological target: Neu5Ac(a2-3)Gal(b1-4)Glc
# Procedure, shortened: as §1
# [26] = biological target: Neu5Ac(a2-3)Gal(b1-4)GlcNAc
# Procedure, shortened: as §1
# [27] = biological target: Neu5Ac(a2-3)Gal(b1-4)GlcNAc(b1-2)Man(a1-3)[GlcNAc(b1-2)Man(b1-4)GlcNAc(b1-2)Man(a1-6)]Man(b1-4)GlcNAc(b1-4)GlcNAc
# Procedure, shortened: as §1
# [28] = biological target: Neu5Ac(a2-3)Gal(b1-4)GlcNAc(b1-2)Man(a1-3)[Neu5Ac(a2-6)Gal(b1-4)GlcNAc(b1-2)Man(a1-6)]Man(b1-4)GlcNAc(b1-4)GlcNAc
# Procedure, shortened: as §1
# [29] = biological target: Neu5Ac(a2-3)Gal(b1-4)GlcNAc(b1-3)Gal(b1-3)GlcNAc
# Procedure, shortened: as §1
# [30] = biological target: Neu5Ac(a2-3)Gal(b1-4)GlcNAc(b1-3)Gal(b1-4)GlcNAc
# Procedure, shortened: as §1
# [31] = biological target: Neu5Ac(a2-3)Gal(b1-4)GlcNAc(b1-3)Gal(b1-4)GlcNAc(b1-3)Gal(b1-4)GlcNAc
# Procedure, shortened: as §1
# [32] = biological target: Neu5Ac(a2-3)Gal(b1-4)GlcNAc(b1-3)Gal(b1-4)[Fuc(a1-3)]GlcNAc
# Procedure, shortened: as §1
# [33] = biological target: Neu5Ac(a2-3)Gal(b1-4)GlcNAc(b1-6)[Gal(b1-3)]GalNAc
# Procedure, shortened: as §1
# [34] = biological target: Neu5Ac(a2-3)Gal(b1-4)GlcNAc(b1-6)[Neu5Ac(a2-3)Gal(b1-3)]GalNAc
# Procedure, shortened: as §1
# [35] = biological target: Neu5Ac(a2-3)Gal(b1-4)GlcNAc6S
# Procedure, shortened: as §1
binder,measurement,setting,value
B1,glycan array binding signal (z-score),[1],-0.198
same,glycan array binding signal (z-score),GlcNAc(b1-6)GalNAc,0.245
same,glycan array binding signal (z-score),GlcNAc3Prop(b1-4)GlcNAc,-0.533
same,glycan array binding signal (z-score),Kdn(a2-3)Gal(b1-3)GlcNAc,-0.128
same,glycan array binding signal (z-score),Kdn(a2-3)Gal(b1-4)GlcNAc,-0.443
same,glycan array binding signal (z-score),[2],-0.051
same,glycan array binding signal (z-score),[3],-0.34
same,glycan array binding signal (z-score),Man(a1-2)Man(a1-3)Man,0.403
same,glycan array binding signal (z-score),[4],-0.267
same,glycan array binding signal (z-score),[5],0.044
same,glycan array binding signal (z-score),[6],-0.271
same,glycan array binding signal (z-score),[7],0.057
same,glycan array binding signal (z-score),[8],0.234
same,glycan array binding signal (z-score),[9],-0.475
same,glycan array binding signal (z-score),Man(a1-3)[Man(a1-6)]Man,7.74
same,glycan array binding signal (z-score),[10],-0.594
same,glycan array binding signal (z-score),[11],-0.537
same,glycan array binding signal (z-score),[12],-0.447
same,glycan array binding signal (z-score),[13],-0.413
same,glycan array binding signal (z-score),Man(a1-6)Man,-0.213
same,glycan array binding signal (z-score),Man(b1-4)GlcNAc,-0.407
same,glycan array binding signal (z-score),Neu5Ac(a2-3)Gal,-0.293
same,glycan array binding signal (z-score),[14],-0.281
same,glycan array binding signal (z-score),[15],-0.473
same,glycan array binding signal (z-score),[16],-0.453
same,glycan array binding signal (z-score),[17],-0.488
same,glycan array binding signal (z-score),[18],0.98
same,glycan array binding signal (z-score),[19],-0.139
same,glycan array binding signal (z-score),[20],0.053
same,glycan array binding signal (z-score),[21],-0.09
same,glycan array binding signal (z-score),[22],-0.093
same,glycan array binding signal (z-score),[23],5.84
same,glycan array binding signal (z-score),[24],-0.261
same,glycan array binding signal (z-score),[25],-0.221
same,glycan array binding signal (z-score),Neu5Ac(a2-3)Gal(b1-4)Glc,0.004
same,glycan array binding signal (z-score),[26],0.016
same,glycan array binding signal (z-score),[27],-0.426
same,glycan array binding signal (z-score),[28],-0.536
same,glycan array binding signal (z-score),[29],-0.622
same,glycan array binding signal (z-score),[30],-0.379
same,glycan array binding signal (z-score),[31],-0.184
same,glycan array binding signal (z-score),[32],-0.517
same,glycan array binding signal (z-score),[33],-0.556
same,glycan array binding signal (z-score),[34],-0.614
same,glycan array binding signal (z-score),[35],-0.126
